The values below come from PubChem BioAssay AID180 (DTP/NCI, 2004).

For part of its entries the source gives two or more results. Only these are listed. There may be further records. Values that stand side by side are repeated measurements across runs, samples, wells, individuals or studies. Marks such as (2×) give the number of equal values in this list.

This experiment has as its system BDF1 mice, Adenocarcinoma 755 s.c., tumor weight T/C. Nature of the experiment: NCI In Vivo Anticancer Drug Screen. Data for tumor model Adenocarcinoma 755 (subcutaneous) in B6D2F1 (BDF1) mice. The settings on record: endpoint: mean tumor weight, higher = larger tumour. In a few lines: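 In vivo antitumor screen on a transplantable tumor line. Result equals the measure in compound-treated animals divided by the same measure in vehicle controls.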

Take `CCOC(=O)C(Cc1ccc(N(CCCl)CCCl)cc1)NP1(=O)NCCCO1` (stereo not drawn): the T/C reads like this: (dose: 4.5 mg/kg/injection, schedule: Q01DX011 (ip), vehicle: saline) 30 % of control and 104 % of control; (dose: 9.0 mg/kg/injection, schedule: Q01DX011 (ip), vehicle: saline) 44 % of control and 87 % of control; (dose: 18.0 mg/kg/injection, schedule: Q01DX011 (ip), vehicle: saline) 14 % of control and 62 % of control.

With `S=P(N1CC1)(N1CC1)N1CC1`, the T/C (dose: 0.73 mg/kg/injection, schedule: Q01DX011 (ip), vehicle: carboxymethylcellulose (CMC)) was 80 % of control and 123 % of control; the T/C (dose: 0.96 mg/kg/injection, schedule: Q01DX011 (ip), vehicle: carboxymethylcellulose (CMC)) was 52 % of control and 82 % of control; the T/C (dose: 1.2 mg/kg/injection, schedule: Q01DX011 (ip), vehicle: carboxymethylcellulose (CMC)) is 23 % of control, 79 % of control, 90 % of control.

Regarding `CCC1OCCN1C(C)C` (stereo not drawn), the T/C (dose: 100.0 mg/kg/injection, schedule: Q01DX011 (ip), vehicle: other) is 13 % of control and 102 % of control.

Take `CC(=O)O[C@]1(C(C)=O)CC[C@H]2[C@@H]3C[C@H](C)C4=CC(=O)C=C[C@]4(C)[C@@]3(F)[C@@H](O)C[C@@]21C`: the T/C reads like this: (dose: 17.0 mg/kg/injection, schedule: Q01DX011 (sc), vehicle: steriod suspending solution) 36 % of control and 105 % of control; (dose: 34.0 mg/kg/injection, schedule: Q01DX011 (sc), vehicle: steriod suspending solution) 19 % of control and 70 % of control; (dose: 68.0 mg/kg/injection, schedule: Q01DX011 (sc), vehicle: steriod suspending solution) 13 % of control and 58 % of control.

On to `CSc1ncnc2nc[nH]c12`, for which the T/C (dose: 250.0 mg/kg/injection, schedule: Q01DX001 (ip), vehicle: carboxymethylcellulose (CMC)) was 25 % of control, 73 % of control, 81 % of control.

On to `C[C@H](CCC(=O)O)[C@H]1CC[C@H]2[C@@H]3[C@H](O)C[C@@H]4C[C@H](O)CC[C@]4(C)[C@H]3C[C@H](O)[C@]12C` (tested in a mixture with another compound), for which the T/C (dose: 40.0 mg/kg/injection, schedule: Q01DX011 (ip), vehicle: methylcellulose (MC)) is given as 18 % of control, 58 % of control, 76 % of control.

Regarding `Cc1ccc(N2CCN(CCCN3CCN(c4ccc(Cl)cc4)CC3)CC2)cc1`, the T/C by setting is: (dose: 3.1 mg/kg/injection, schedule: Q01DX011 (ip), vehicle: methylcellulose (MC)) 26 % of control and 86 % of control; (dose: 6.25 mg/kg/injection, schedule: Q01DX011 (ip), vehicle: methylcellulose (MC)) 18 % of control, 38 % of control, 81 % of control.

In the case of `CS(=O)(=O)OCCCl`, the T/C (dose: 14.36 mg/kg/injection, schedule: Q01DX011 (ip), vehicle: carboxymethylcellulose (CMC)) was 55 % of control and 110 % of control; the T/C (dose: 57.45 mg/kg/injection, schedule: Q01DX011 (ip), vehicle: carboxymethylcellulose (CMC)) is 79 % of control and 111 % of control.

Turning to `S=c1nc[nH]c2c1ncn2C1CCCC1`, the T/C (dose: 7.5 mg/kg/injection, schedule: Q01DX011 (ip), vehicle: carboxymethylcellulose (CMC)) is 43 % of control and 92 % of control.

`CC(=O)[C@@]1(O)[C@H](C)C[C@H]2[C@@H]3C=C(C)C4=Cc5c(cnn5-c5ccccc5)C[C@]4(C)[C@H]3[C@@H](O)C[C@@]21C`: the T/C (dose: 0.1 mg/kg/injection, schedule: Q01DX011 (sc), vehicle: steriod suspending solution) is 15 % of control and 41 % of control.

Regarding `C/C(=N\NC(=O)c1ccncc1)c1cccc(Cl)c1`, the T/C was 55 % of control and 108 % of control (dose: 3.7 mg/kg/injection, schedule: Q01DX011 (ip), vehicle: methylcellulose (MC)); 45 % of control and 77 % of control (dose: 15.0 mg/kg/injection, schedule: Q01DX011 (ip), vehicle: methylcellulose (MC)).

Consider `CC1(C)O[C@@H]2C[C@H]3[C@@H]4CCC5=CC(=O)CC[C@]5(C)[C@@]4(F)[C@@H](O)C[C@]3(C)[C@]2(C(=O)CO)O1`, for which the T/C (dose: 1.5 mg/kg/injection, schedule: Q01DX011 (sc), vehicle: steriod suspending solution) is 43 % of control, 46 % of control, 76 % of control.

Regarding `O=[As]O`, the T/C by setting is: (dose: 5.2 mg/kg/injection, schedule: Q01DX011 (ip), vehicle: carboxymethylcellulose (CMC)) 53 % of control and 91 % of control; (dose: 6.5 mg/kg/injection, schedule: Q01DX011 (ip), vehicle: carboxymethylcellulose (CMC)) 58 % of control, 62 % of control, 103 % of control.

As to `O=C(O)CC(O)(CC(=O)O)C(=O)O.[Ga]`, the T/C runs as follows: (dose: 2.5 mg/kg/injection, schedule: Q01DX011 (ip), vehicle: carboxymethylcellulose (CMC)) 12 % of control and 44 % of control; (dose: 5.0 mg/kg/injection, schedule: Q01DX011 (ip), vehicle: carboxymethylcellulose (CMC)) 9 % of control and 35 % of control.

Take `COc1ccc(/C=N/Nc2nc3c([nH]2)c(=O)n(C)c(=O)n3C)cc1`: the T/C (dose: 240.0 mg/kg/injection, schedule: Q01DX011 (ip), vehicle: carboxymethylcellulose (CMC)) is 117 % of control and 158 % of control.

`c1nc(SCCSc2ncnc3nc[nH]c23)c2[nH]cnc2n1`: for the setting “dose: 37.5 mg/kg/injection, schedule: Q01DX011 (ip), vehicle: methylcellulose (MC)”, the T/C is 18 % of control and 61 % of control.

On to `CCCOP(=S)(N1CC1C)N1CC1(C)C` (stereo not drawn), for which the T/C by setting is: (dose: 1.5 mg/kg/injection, schedule: Q01DX011 (ip), vehicle: carboxymethylcellulose (CMC)) 31 % of control and 123 % of control; (dose: 3.0 mg/kg/injection, schedule: Q01DX011 (ip), vehicle: carboxymethylcellulose (CMC)) 33 % of control, 62 % of control, 74 % of control.

For the molecule `Nc1nc2n[nH]nc2c(=O)[nH]1`, the T/C (dose: 43.36 mg/kg/injection, schedule: Q01DX011 (ip), vehicle: carboxymethylcellulose (CMC)) is 29 % of control and 89 % of control; the T/C (dose: 54.2 mg/kg/injection, schedule: Q01DX011 (ip), vehicle: carboxymethylcellulose (CMC)) was 10 % of control, 40 % of control, 80 % of control; the T/C (dose: 72.26 mg/kg/injection, schedule: Q01DX011 (ip), vehicle: carboxymethylcellulose (CMC)) was 5 % of control and 51 % of control.

In the case of `CC(=O)OCC(=O)[C@@]1(O)CC[C@H]2[C@@H]3CCC4=CC(=O)C=C[C@]4(C)[C@@]3(F)[C@@H](O)C[C@@]21C`, the T/C (dose: 0.56 mg/kg/injection, schedule: Q01DX011 (sc), vehicle: steriod suspending solution) was 38 % of control and 72 % of control; the T/C (dose: 3.0 mg/kg/injection, schedule: Q01DX011 (sc), vehicle: steriod suspending solution) was 43 % of control and 84 % of control; the T/C (dose: 6.0 mg/kg/injection, schedule: Q01DX011 (sc), vehicle: steriod suspending solution) was 16 % of control and 51 % of control; the T/C (dose: 12.0 mg/kg/injection, schedule: Q01DX011 (sc), vehicle: steriod suspending solution) was 18 % of control and 50 % of control; the T/C (dose: 12.5 mg/kg/injection, schedule: Q01DX011 (sc), vehicle: steriod suspending solution) was 21 % of control and 55 % of control.

On to `COc1ccc(C[n+]2cc([O-])on2)cc1`, for which, under “dose: 3.12 mg/kg/injection, schedule: Q01DX011 (ip), vehicle: carboxymethylcellulose (CMC)”, the T/C is 29 % of control and 60 % of control.

On to `NCC(=O)Nc1ccc(O)cc1`, for which the T/C is 31 % of control and 101 % of control (dose: 50.0 mg/kg/injection, schedule: Q01DX011 (ip), vehicle: carboxymethylcellulose (CMC)); 58 % of control and 110 % of control (dose: 100.0 mg/kg/injection, schedule: Q01DX011 (ip), vehicle: carboxymethylcellulose (CMC)).

Regarding `C(=N\OCCc1ccccc1)/c1cccnc1`, the T/C runs as follows: (dose: 133.0 mg/kg/injection, schedule: Q01DX011 (ip), vehicle: methylcellulose (MC)) 63 % of control and 118 % of control; (dose: 200.0 mg/kg/injection, schedule: Q01DX011 (ip), vehicle: methylcellulose (MC)) 60 % of control and 104 % of control.

Consider `Cc1ccc(C(=O)[O][Hg][CH2]C2COC([CH2][Hg][O]C(=O)c3ccc(C)cc3)CO2)cc1` (stereo not drawn), for which the T/C (dose: 12.5 mg/kg/injection, schedule: Q01DX011 (ip), vehicle: methylcellulose (MC)) was 66 % of control (2×) and 92 % of control.

As for `CN(C)[C@@H]1C(=O)C(C(=O)NCNCCCC(=O)O)=C(O)[C@@]2(O)C(=O)C3=C(O)c4c(O)cccc4[C@@](C)(O)[C@H]3C[C@@H]12`, where the note is “dose: 525.0 mg/kg/injection, schedule: Q01DX011 (ip), vehicle: saline”, the T/C was 3 % of control and 69 % of control.

`C[C@]12C=CC(=O)C=C1CC[C@@H]1[C@@H]2[C@@H](O)C[C@@]2(C)[C@H]1CC[C@]2(O)C(=O)CF`: the T/C is, setting by setting: (dose: 33.0 mg/kg/injection, schedule: Q01DX011 (sc), vehicle: steriod suspending solution) 29 % of control and 95 % of control; (dose: 66.0 mg/kg/injection, schedule: Q01DX011 (sc), vehicle: steriod suspending solution) 18 % of control and 80 % of control.

Turning to `O=NN1CCN(N=O)CC1`, the T/C (dose: 5.87 mg/kg/injection, schedule: Q01DX011 (ip), vehicle: carboxymethylcellulose (CMC)) is 67 % of control and 107 % of control.

For `Nc1nc(N)c(N=O)c(Nc2ccc(Cl)c(Cl)c2)n1`, the T/C (dose: 28.0 mg/kg/injection, schedule: Q01DX011 (ip), vehicle: carboxymethylcellulose (CMC)) is 38 % of control and 72 % of control.
